Measurements taken from PubChem BioAssay AID540267 (National Center for Advancing Translational Sciences (NCATS), 2011).
In all, about 340,000 compounds went through this assay and about 530 (0.16%) were called active. Inconclusive means that the source gave no clear call. Such entries were picked first, then a sample of the others. No stated cut-off is given here; in the data, active means activity change below about -80%; inconclusive means between about -30% and that limit; inactive means weaker than that.
On the % scale 0 is the no-effect control and ±100 the full control effect.

Assay: Small Molecules that selectively kill Giardia lamblia: qHTS;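 further: parasites exposed to compound for two days anaerobically before the ATP read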
Settings: Giardia lamblia trophozoite viability; at 7.66 µM; active compounds read low
Description: Giardia lamblia is a human pathogen afflicting impoverished nations, and the most common cause of outbreaks of diarrhea in the United States. Giardia has been classified by the CDC as a category B bioterrorism organism. The favored anti giardiasis drugs in the US are metronidazole or tinidazole, compounds that have undesirable side effects. Moreover, increasing resistance to drug regimes and recurrence are a concern. It is thus clear that alternative drug treatments are needed.
In a collaboration between the University of Maryland, College Park and the NIH Chemical Genomics Center, a bioluminescence Giardia viability assay based on the trophozoites' ATP content was developed. This assay is suitable for high throughput screening, and miniaturized the assay for compound screening in 1536-well plates. The goal of the project is to screen the Molecular Libraries Small Molecule Repository (MLSMR) for compounds that selectively kill Giardia trophozoites.
NIH Chemical Genomics Center [NCGC]
NIH Molecular Libraries Probe Centers Network [MLPCN]
Assay Submitter (PI): Osnat Herzberg, University of Maryland, College Park, MD.
1. Dispense 2 ul/well media
2. Dispense 23 nl/well compounds
3. Dispense 4 ul/well Giardia trophozoites at a concentration of 100 cells/well
4. Incubate 48 hrs at 37 deg C anaerobically
5. Dispense 4 ul/well ATPLite 1-Step Luminescence assay kit
6. Incubate 15-30 min at room temperature
7. Read luminescence signal on ViewLux plate reader
In the case of `CCOc1ccccc1NC(=O)CSc1nnc(CNC(=O)c2cccs2)o1`, the activity change is reported as inconclusive: -33.8% [inhibitor]. For `COc1ccc(CCNC(=O)C(=O)NCC2OCCN2S(=O)(=O)c2ccc3c(c2)OCCO3)cc1OC` (configuration not stated), the activity change was inactive: 1.64%. For `CCCCNc1ncnc2c1cnn2Cc1ccc(Cl)cc1`, the activity change was inconclusive: -42.2% [inhibitor]. With `Cc1ccc2nc(NNC(=O)c3ccc4c(c3)OCCO4)sc2c1` the activity change was inactive: 1.61%. In the case of `O=C1C(=C2SCCCS2)CC/C1=C\c1ccc(F)cc1`, the activity change is reported as inconclusive: -48.4% [inhibitor]. In the case of `O=C(CNC(=O)c1ccccc1Cl)N/N=C/c1ccc([N+](=O)[O-])s1`, the activity change is reported as inconclusive: -43% [inhibitor]. In the case of `Cc1ccc(N=c2c([N+](=O)[O-])nn(-c3ccc4c(c3)OCCO4)n2O)cc1F`, the activity change is reported as inconclusive: -57.8% [inhibitor]. With `C=CCN1C=CC(=O)[C@@H](OC(=O)Nc2ccc(Br)cc2)[C@H]1c1ccccc1Br` the activity change was inconclusive: -35.8% [inhibitor]. With `O=[N+]([O-])c1ccc(/C=[N+](\[O-])CCO)o1` the activity change was inconclusive: -73.2% [inhibitor]. In the case of `CCn1c(NC(=O)C2CCCCC2)nc2ccccc21`, the activity change is reported as inactive: 0.701%. In the case of `O=C(NN1C(=O)c2ccccc2NC1c1ccco1)c1ccc([N+](=O)[O-])cc1` (configuration not stated), the activity change is reported as inconclusive: -31.5% [inhibitor]. In the case of `N=c1c(S(=O)(=O)c2ccc(Br)cc2)cc2c(=O)n3ccccc3nc2n1Cc1ccco1`, the activity change is reported as inconclusive: -35.2% [inhibitor]. In the case of `O=C(NC(C(=O)O)c1ccccc1)c1ccccc1` (configuration not stated), the activity change is reported as inconclusive: -33.3% [inhibitor]. For `O=C1c2ccccc2C(=O)N1c1nccs1`, the activity change was inconclusive: -30.4% [inhibitor]. In the case of `CCn1c(=NC(=O)c2cccc(N3C(=O)CCC3=O)c2)sc2c(OC)ccc(OC)c21`, the activity change is reported as inconclusive: -46.9% [inhibitor]. With `CCn1c2c(c3cc(Br)ccc31)CCC/C2=N\O` the activity change was inactive: -9.87%. For `O=C(O)c1cc(N2CCCC2)ccn1`, the activity change was inactive: 9.48%. For `CCOC(=O)c1ccc(NS(=O)(=O)c2ccc3oc(=O)[nH]c3c2)cc1`, the activity change was inactive: 6.84%. For `O=C(CNC(=O)c1ccc(F)cc1)N/N=C/c1cc(Br)ccc1OCc1ccccc1`, the activity change was inconclusive: -40.6% [inhibitor]. With `COc1ccc(CNc2oc(-c3ccccc3)nc2C#N)cc1` the activity change was inconclusive: -32.1% [inhibitor]. In the case of `O=S(=O)(Nc1ncnc2scc(-c3ccc(F)cc3)c12)c1cc(F)ccc1F`, the activity change is reported as inconclusive: -35.8% [inhibitor]. In the case of `O=C(Nc1ccc(-c2n[nH]c(=S)o2)cc1)c1ccccc1Cl`, the activity change is reported as inconclusive: -37.6% [inhibitor]. For `CCCCN1C(=O)c2ccc(C(=O)Nc3c(N)n(CCCC)c(=O)n(C)c3=O)cc2C1=O`, the activity change was inactive: -7.44%. In the case of `O=C(COC(=O)CCN=C1NS(=O)(=O)c2ccccc21)NNC(=O)c1ccccc1`, the activity change is reported as inconclusive: -32.3% [inhibitor]. With `O=C(C1CCCC1)N1CCN(S(=O)(=O)c2cccc(Cl)c2Cl)CC1` the activity change was inconclusive: -31.1% [inhibitor]. For `O=[n+]1c2c(n([O-])c3cc(Cl)ccc31)CCCC2`, the activity change was inconclusive: -71.3% [inhibitor]. With `CCN(CC)CCNC(=O)Cn1nc(-c2ccc(C)cc2)ccc1=O` the activity change was inactive: -6.97%. With `COc1ccc2nc(-c3cccc(N)c3)[nH]c2c1` the activity change was inconclusive: -39.9% [inhibitor]. With `COc1cc2c3c(c1OC)C1(C=CC(=NNC(N)=O)C=C1)CC3N(C(C)=O)CC2` (configuration not stated) the activity change was inconclusive: -47.8% [inhibitor]. For `CN1CCN(NC(=O)COc2cccc(C(F)(F)F)c2)CC1`, the activity change was inconclusive: -32.5% [inhibitor]. In the case of `CC(C)CN(C(=O)CCCOc1ccc(Cl)cc1Cl)c1c(N)n(Cc2ccccc2)c(=O)[nH]c1=O`, the activity change is reported as inconclusive: -30.3% [inhibitor]. With `O=C(Nc1c(Cl)ccc2nsnc12)c1ccc([N+](=O)[O-])o1` the activity change was active: -86.7%. With `CCN(CCCNC(=O)c1nn(C)c2c1CS(=O)(=O)c1ccccc1-2)Cc1ccccc1` the activity change was inconclusive: -54.3% [inhibitor]. In the case of `CCN1CCCc2cc(CN(CCN3CCOCC3)C(=S)Nc3ccc(OC)c(OC)c3)ccc21`, the activity change is reported as inconclusive: -30.4% [inhibitor]. With `O=C(N/N=C/c1ccccc1O)C1(O)c2ccccc2-c2ccccc21` the activity change was inactive: -5.22%. In the case of `CCOC(=O)c1sc2ccc(S(=O)(=O)N3CCCCC3)cc2c1N`, the activity change is reported as inactive: -6.75%. For `Cc1cc(C(=O)NNC(=O)CCC2CCCCC2)c(C)o1`, the activity change was inconclusive: -36.2% [inhibitor]. In the case of `CC(C)Oc1ccc(Oc2ccc(C(F)(F)F)cn2)cc1`, the activity change is reported as inconclusive: -30.8% [inhibitor]. With `CC1=NN(C(N)=S)C(=O)C1N=Nc1cccc(Cl)c1C` (configuration not stated) the activity change was inconclusive: -38.9% [inhibitor]. With `CC1CC(C)CN(S(=O)(=O)c2ccc3c(c2)oc(=O)n3CC(=O)N2CCOCC2)C1` (configuration not stated) the activity change was inconclusive: -34.1% [inhibitor]. In the case of `Cc1ccc(Cn2c(NCCCn3ccnc3)nc3c2c(=O)n(C)c(=O)n3C)cc1`, the activity change is reported as inactive: 3.96%. With `CC(=O)c1cccc(NC(=O)CSc2nc(=O)n(CCN3CCOCC3)c3c2CCCC3)c1` the activity change was inconclusive: -36.3% [inhibitor]. For `O=C(NC(=S)Nc1nc2ccc(F)cc2s1)c1ccco1`, the activity change was inconclusive: -55% [inhibitor]. For `CSc1nc(-c2ccccc2)nc(N2CCOCC2)c1C(C)=O`, the activity change was inconclusive: -39.3% [inhibitor]. In the case of `CCn1cc(C(=O)NCCCN2CCCC(C)C2)c(=O)c2cc(S(=O)(=O)N(C)C3CCCCC3)ccc21` (configuration not stated), the activity change is reported as inconclusive: -30.4% [inhibitor]. In the case of `Nc1nc2ccccc2n1C(=O)c1ccccc1`, the activity change is reported as inconclusive: -46.7% [inhibitor]. With `O=C(Nc1ccc2c(c1)OCO2)c1noc2c1CCCC2` the activity change was inactive: -8.51%. In the case of `CCC(C)Nc1nc2c(c(=O)[nH]c(=O)n2C)n1CCCc1ccccc1` (configuration not stated), the activity change is reported as inconclusive: -34.3% [inhibitor]. With `Cc1c(C(=O)N/N=C/c2cccnc2)nnn1-c1nonc1N` the activity change was inconclusive: -30.4% [inhibitor]. With `CC(C)(C)NC(=O)C(c1ccco1)N(C(=O)Cn1nnc(-c2ccc(F)cc2)n1)c1ccccc1` (configuration not stated) the activity change was inactive: 7.5%. In the case of `O=C(CN1C(=O)NC2(CCCC2)C1=O)NNC(=O)c1ccc(Cl)cc1`, the activity change is reported as inconclusive: -35.6% [inhibitor]. In the case of `Cc1cccc2sc(NNC(=O)c3ccc(S(=O)(=O)N4CCCC(C)C4)cc3)nc12` (configuration not stated), the activity change is reported as inactive: -12.2%. For `CC(=O)Nc1cc2c(cc1[N+](=O)[O-])-c1ccccc1C2O` (configuration not stated), the activity change was inconclusive: -38.9% [inhibitor]. For `COc1ccc(S(=O)(=O)NC(CC(=O)NC2CCCC2)c2ccco2)cc1` (configuration not stated), the activity change was inconclusive: -32.9% [inhibitor]. For `Clc1cccc(-c2ccc3ncnc(NCc4cccnc4)c3c2)c1`, the activity change was inconclusive: -34% [inhibitor]. With `COc1cc2c(cc1OC)CN(Cc1ccccc1)CC2` the activity change was inactive: -2.86%. For `COc1ccc(/C=N/Nc2nc(Nc3ccccc3)nc(N3CCCC3)n2)cc1`, the activity change was inactive: -21.5%. For `COc1cc2sc3cc(NCc4ccc(C)o4)ccc3c(=O)c2cc1OC`, the activity change was inconclusive: -32.3% [inhibitor]. With `O=C(N/N=C/c1ccc([N+](=O)[O-])o1)C1CCCC1` the activity change was active: -93.5%. In the case of `O=C(CSc1nnc(-c2ccc(Br)cc2)o1)Nc1cccc(C(=O)O)c1`, the activity change is reported as inconclusive: -40.1% [inhibitor]. With `CCn1cnc2c(Nc3cccc(Cl)c3)nc(C#N)nc21` the activity change was inconclusive: -33.2% [inhibitor]. In the case of `CC(=O)c1c(C)n([O-])c2ccc(C)cc2[n+]1=O`, the activity change is reported as inconclusive: -55% [inhibitor]. With `COc1ccccc1NC(=S)NC(C)C(c1cccs1)N1CCOCC1` (configuration not stated) the activity change was inconclusive: -36.5% [inhibitor]. With `Cc1ccc(N2C(=O)CC(Sc3cccs3)C2=O)cc1` (configuration not stated) the activity change was inactive: 5.81%. With `CCCCn1c(N)c(N(CC)C(=O)C2=NN(c3ccccc3)C(=O)CC2)c(=O)[nH]c1=O` the activity change was inconclusive: -41.1% [inhibitor]. For `Cc1cc(C(=O)COC(=O)CC2Sc3ccccc3NC2=O)c(C)n1-c1ccc2c(c1)OCO2` (configuration not stated), the activity change was inactive: -10.7%. For `CCCCCC(=O)Nc1cccc(C2=NOC3(C2)C[C@H](C(N)=O)N(C(=O)c2ccccc2C(=O)c2ccccc2)C3)c1` (some centres not stated), the activity change was inactive: -0.174%. For `COc1ccc(-c2cc(=O)c3cc(C)ccc3[nH]2)cc1`, the activity change was inconclusive: -32.7% [inhibitor]. With `OCCCNC(=S)Nc1ccc2nc(-c3ccccn3)c(-c3ccccn3)nc2c1` the activity change was inactive: 2.35%. For `CC(CC(=O)N1CCN(S(=O)(=O)c2ccccc2)CC1)n1cncn1` (configuration not stated), the activity change was inconclusive: -31.7% [inhibitor]. With `CCOC(=O)Nc1ccc(S(=O)(=O)NC2CCCCC2)cc1` the activity change was inconclusive: -39.2% [inhibitor]. In the case of `COc1ccc(N=CC2=C(O)c3ccccc3C2=O)c(OC)c1`, the activity change is reported as inconclusive: -40.9% [inhibitor]. With `CCOC(=O)C1=C(C)NC(=O)NC1c1ccc([N+](=O)[O-])o1` (configuration not stated) the activity change was inconclusive: -74.4% [inhibitor]. For `CNS(=O)(=O)c1ccc(CCC(=O)N2CCN(c3ccccc3OC)CC2)cc1`, the activity change was inconclusive: -36.4% [inhibitor]. For `COC(CNC(=O)c1ccc2c3c(onc13)-c1ccccc1C2=O)OC`, the activity change was inactive: -15.1%. In the case of `Cc1ccc(OCCC(=O)Nc2ccc(F)c(F)c2)cc1`, the activity change is reported as inactive: -8.46%. In the case of `Cc1c(Br)c([N+](=O)[O-])nn1CC(=O)NCc1ccccc1`, the activity change is reported as inconclusive: -31.3% [inhibitor].
